# According to ChEMBL document CHEMBL4888484, “Replenishing the malaria drug discovery pipeline: Screening and hit evaluation of the MMV Hit Generation Library 1 (HGL1) against asexual blood stage Plasmodium falciparum ,using a nano luciferase reporter read-out” (2022):
# About 540 (0.36%) of roughly 150,000 compounds showed an effect of 50% or more. The list shows a part of the results.
# Test system: Plasmodium falciparum
# Test: Primary screen in NF54 nanoGlo assay, in single point, at 2uM, 72h; a lower Z score goes with more inhibition
# Format: functional, Erythrocyte
# Settings: timepoint 72 hour
Compound,% Inhibition [%],Z score
COC(=O)C1=C(C(=O)OC)SC(=C2C(=S)C(C)(C)Nc3ccc(OC(=O)c4ccccc4)cc32)S1,-7,0.83
CC(=O)N(CCC(C)C)Cc1c(-c2ccccc2F)noc1N1CCOCC1,-2,0.25
Cc1c(NC(=O)Cc2ccc(Cl)cc2)c(=O)n(-c2ccccc2)n1C,-7,0.99
COc1cc(OC)cc([C@H]2CC(=O)Nc3c2cnn3Cc2ccco2)c1,-15,1.93
Cc1cc(C(=O)N[C@H]2CCC23CCOCC3)c(C)o1,7,-0.9
O=C(N[C@H]1CCc2n[nH]c(=O)n2CC1)c1ccc2ccccc2n1,-9,1.43
COc1ccc(-c2nc3ccccc3c(=O)n2Cc2ccccc2)c2ccccc12,1,-0.21
CC1(C)CN(C(=O)Cc2[nH]ncc2C(=O)N2CC(C)(C)C2)C1,4,-0.71
CC[C@@H](NC(=O)OC(C)(C)C)C(=O)NC1CCCC1Oc1ccccc1 (stereo partly specified),10,-1.28
C/C(=C\c1ccccc1)C(=O)N1CC[C@H](n2c(C)nc3ccccc32)C1,-15,1.91
Cc1nnsc1C(=O)N1CCC[C@H](CCc2ccccc2)C1,-8,1.17
CCOc1ccc(NC(=O)c2ccccc2N2C(=O)[C@@H]3Cc4c([nH]c5ccccc45)C(c4ccccc4C)N3C2=O)cc1 (stereo partly specified),3,-0.32
Cc1nn(C)c2nc(-c3ccccn3)nc(N3C[C@H](O)[C@@H](N4CCCC4)C3)c12,10,-2.04
CN1CCOC(C(=O)N2CCOC3CCCCC32)C1 (stereo unspecified),-10,1.57
CCO[C@H]1[C@H](NC(=O)CC)c2ccccc2C12CCN(Cc1cc3ccccc3o1)CC2,-16,1.98
O=S(=O)(NC1CCC2OCCOC2C1)c1ccc(-c2ccc(Cl)c(Cl)c2)cc1 (stereo unspecified),-1,0.27
CCOC1CC(CC(=O)Nc2ccc(O)cc2Br)C1 (stereo unspecified),0,-0.04
CCn1cc(C(=O)NCCCN2CCC[C@H](C)C2)c(C(C)C)n1,5,-0.44
Cc1cn(C)nc1C(=O)N1CC(C)(C)O[C@](C)(C(F)(F)F)C1,-14,1.99
O=C1CCC(=O)N1OCc1ccc(F)cc1,-3,0.6
Cc1nsc(NC(=O)COc2ccccc2Cl)n1,-9,1.18
COC(=O)CC1(NCC(=O)NCC2CCC2)CCCCC1,-5,0.64
Cc1noc(C)c1CN(C)C[C@H](O)c1ccc(Br)cc1,-5,0.75
Cc1cc(C)nc(O[C@H]2CCN(S(=O)(=O)c3ccc(F)c(Cl)c3)C2)n1,-15,2.35
Cc1ccc2c(c1)NC(=O)c1cc(S(=O)(=O)N(C)C)c(N3CCCC3)cc1O2,-15,2.03
COc1ccccc1C(=O)Nc1ccc2c(c1)C(O)=Nc1cccnc1O2,15,-2.78
CCC(CC)c1nnc(NC(=O)N2CC[C@H](S(C)(=O)=O)C2)s1,7,-1.03

Compound,% Inhibition [%],Z score
COc1ccc2c(C)c(C(=O)N3CCc4nc(C)[nH]c(=O)c4CC3)oc2c1,-5,0.6
CC1CN(C[C@H]2CCCN2C(=O)OC(C)(C)C)CCS(=O)(=O)C1 (stereo partly specified),13,-1.6
COc1ccc(=O)n(Cc2cc(C(C)(C)C)on2)n1,0,-0.05
CS(=O)(=O)c1ccccc1CCNC(=O)[C@H]1CCn2ccnc2C1,0,-0.04
COCCN1C[C@]2(CCCN(C(=O)CCc3cccc(F)c3)C2)CCC1=O,9,-1.63
CC(C)NC(=O)c1nsc(C(=O)NCc2cccnc2)c1N,-19,1.86
Cc1nccn1CCCNc1ccc(OC(F)F)cc1,-4,0.3
COc1ccc(-n2nc(C)c3sc(N4CCCN(C(=O)C(F)(F)F)CC4)nc32)cc1,-9,1.05
Cn1nc(-c2cccc(Cl)c2)cc1C(=O)NC[C@@H]1CCCN2CCCC[C@H]12,-6,0.88
CCCn1cc(C(=O)N2CC(=O)N(c3cccc(C)c3)C[C@@H]2C)c(C)n1,3,-0.65
O=C1CC[C@@]2(CCCO2)CCN1Cc1noc(-c2ccco2)n1,1,-0.19
Cc1cccc(CN2CCN(C(=O)c3cc(C)nc(N)n3)[C@@H](C)C2=O)c1,-2,0.2
Cc1[nH]c2ncnc(NC(=O)c3cccc(S(=O)(=O)NC4CC4)c3)c2c1C,-21,3.01
COc1ccc(O)c(-c2nc(-c3csc(C(C)C)n3)no2)c1,-13,1.25
Cc1csc(NC(=O)CCC(C)C)n1,-12,1.67
CC(C)(C)OC(=O)c1ccccc1NC(=O)[C@@H]1COCCO1,6,-0.72
Cc1cccc(-n2nc(C)c(CCC(=O)NC3CC3)c2Oc2ccccc2C)c1,-7,1.19
CC1(c2cc(NC(=O)NC3(c4ccc(C#N)cc4)CCOCC3)no2)CCCC1,2,-0.23
CC1=C(C(=O)NCc2cc(CC(C)C)on2)[C@H](c2[nH]cnc2C)NC(=O)N1,-7,1.21
Cc1noc(C)c1C(=O)N(C)CCn1ccnc1,4,-0.82
Cc1ncsc1C(=O)N1CCCC[C@H](S(C)(=O)=O)C1,-10,1.73
CC[C@@H](c1cccnc1)N(C)S(=O)(=O)c1c(C)n[nH]c1C,-2,0.38
O=C1CC[C@H](NC(=O)c2cccc(COc3cccc(F)c3)c2)CN1,0,-0.02
O=C(CCN1C(=O)CCC1=O)Nc1cccc(S(=O)(=O)N2CCCC2)c1,10,-0.96
CCc1nc(CCNc2ccnc(C)c2)cs1,-16,2.54
O=C(Cn1cc(S(=O)(=O)N2CCOCC2)ccc1=O)Nc1ccc(F)cc1,1,-0.24
